Assay results as given in publication PMC5700166.
This is a selection; strong and weak results do not stand in their true shares. The list includes weakly bound sequences.

Each sequence was assayed against T1, GST-Aq-NF-kB (UniProt A9Y5G7) (assay: protein-binding microarray (PBM)). Details: PBM: ~300 nM protein, 6 mM HEPES pH 7.8, 80 mM KCl, 0.5 mM EDTA, 0.5 mM EGTA, 6% glycerol, 35 ng/ul poly-dIdC, 1% milk, 1 h, room temperature; Ap Aiptasia and Nv Nematostella (sea anemones) / Co Capsaspora / Aq Amphimedon (sponge) / Dm Drosophila / Hu human; RHD is the Rel homology domain; high values mean tight binding; most listed sequences are background and not binding sites; double strand, one strand shown.
T1 sequence: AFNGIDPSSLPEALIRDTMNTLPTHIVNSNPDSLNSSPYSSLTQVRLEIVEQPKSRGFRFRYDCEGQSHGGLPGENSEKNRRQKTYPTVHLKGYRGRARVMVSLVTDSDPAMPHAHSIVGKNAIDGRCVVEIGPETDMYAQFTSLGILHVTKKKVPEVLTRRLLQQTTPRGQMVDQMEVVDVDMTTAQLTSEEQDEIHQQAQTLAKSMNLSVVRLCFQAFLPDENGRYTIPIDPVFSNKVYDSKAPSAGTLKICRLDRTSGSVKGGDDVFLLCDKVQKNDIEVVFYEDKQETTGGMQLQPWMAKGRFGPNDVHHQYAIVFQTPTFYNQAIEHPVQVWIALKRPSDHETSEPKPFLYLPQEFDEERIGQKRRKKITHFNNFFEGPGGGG

Row | Sequence | binding signal
1 | CCGATTAACATCATTGGGAAAAATGATGTTAATCGGGTCTTGATTCGCTTGACGCTGCTG | 1.92 z-score
2 | CCGATTAACATCAGGCGATCCCCTGATGTTAATCGGGTCTTGATTCGCTTGACGCTGCTG | 5.06 z-score
3 | CCGATTAACATCATGTATGCCCCTGATGTTAATCGGGTCTTGATTCGCTTGACGCTGCTG | 2.51 z-score
4 | CCGATTAACATCAAAAATTCCCATGATGTTAATCGGGTCTTGATTCGCTTGACGCTGCTG | 6.55 z-score
5 | CCGATTAACATCAAAGGGAATAGTGATGTTAATCGGGTCTTGATTCGCTTGACGCTGCTG | 2.54 z-score
6 | CCGATTAACATCAGGGGGTCTACTGATGTTAATCGGGTCTTGATTCGCTTGACGCTGCTG | 4.4 z-score
7 | CCGATTAACATCATTCCGGGAAATGATGTTAATCGGGTCTTGATTCGCTTGACGCTGCTG | 1.95 z-score
8 | CCGATTAACATCAAAGCCCCCCCTGATGTTAATCGGGTCTTGATTCGCTTGACGCTGCTG | 5.12 z-score
9 | CCGATTAACATCAACGTCCCCCCTGATGTTAATCGGGTCTTGATTCGCTTGACGCTGCTG | 4.66 z-score
10 | CCGATTAACATCAAAGAGCCCCCTGATGTTAATCGGGTCTTGATTCGCTTGACGCTGCTG | 5.01 z-score
11 | CCGATTAACATCATAAATTCCCATGATGTTAATCGGGTCTTGATTCGCTTGACGCTGCTG | 3.71 z-score
12 | CCGATTAACATCAATGCACCCCCTGATGTTAATCGGGTCTTGATTCGCTTGACGCTGCTG | 3.4 z-score
13 | CCGATTAACATCAGGGAAACTCATGATGTTAATCGGGTCTTGATTCGCTTGACGCTGCTG | 4.27 z-score
14 | CCGATTAACATCAGGGAACTTTATGATGTTAATCGGGTCTTGATTCGCTTGACGCTGCTG | 5.17 z-score
15 | CCGATTAACATCAATTTGGGAAATGATGTTAATCGGGTCTTGATTCGCTTGACGCTGCTG | 0.788 z-score
16 | CCGATTAACATCAGAAAATCCCATGATGTTAATCGGGTCTTGATTCGCTTGACGCTGCTG | 4.36 z-score
17 | CCGATTAACATCACCCAATTCCCTGATGTTAATCGGGTCTTGATTCGCTTGACGCTGCTG | 2.94 z-score
18 | CCGATTAACATCAAAGAGTCCCCTGATGTTAATCGGGTCTTGATTCGCTTGACGCTGCTG | 5.8 z-score
19 | CCGATTAACATCAAAATTCCCACTGATGTTAATCGGGTCTTGATTCGCTTGACGCTGCTG | 4.54 z-score

Row | Sequence | binding signal
20 | CCGATTAACATCAGAAATCCCAATGATGTTAATCGGGTCTTGATTCGCTTGACGCTGCTG | 2.14 z-score
21 | CCGATTAACATCACAAAACTCCCTGATGTTAATCGGGTCTTGATTCGCTTGACGCTGCTG | 6.32 z-score
22 | CCGATTAACATCAGGGAGTCCCCTGATGTTAATCGGGTCTTGATTCGCTTGACGCTGCTG | 9.35 z-score
23 | CCGATTAACATCATATTGGGAAATGATGTTAATCGGGTCTTGATTCGCTTGACGCTGCTG | 0.882 z-score
24 | CCGATTAACATCAGGGAAAACACTGATGTTAATCGGGTCTTGATTCGCTTGACGCTGCTG | 6.06 z-score
25 | CCGATTAACATCATATTTCCCCATGATGTTAATCGGGTCTTGATTCGCTTGACGCTGCTG | 5.08 z-score
26 | CCGATTAACATCAACCCCCCCCATGATGTTAATCGGGTCTTGATTCGCTTGACGCTGCTG | 4.01 z-score
27 | CCGATTAACATCAAGATTTCCCATGATGTTAATCGGGTCTTGATTCGCTTGACGCTGCTG | 3.35 z-score
28 | CCGATTAACATCAGGGGGTTGACTGATGTTAATCGGGTCTTGATTCGCTTGACGCTGCTG | 3.95 z-score
29 | CCGATTAACATCACCGCCCCACGTGATGTTAATCGGGTCTTGATTCGCTTGACGCTGCTG | 1.28 z-score
30 | CCGATTAACATCAAAGCACCCCCTGATGTTAATCGGGTCTTGATTCGCTTGACGCTGCTG | 4.36 z-score
31 | CCGATTAACATCAGACTGGGAAATGATGTTAATCGGGTCTTGATTCGCTTGACGCTGCTG | 1.18 z-score
32 | CCGATTAACATCACCTTCTTTACTGATGTTAATCGGGTCTTGATTCGCTTGACGCTGCTG | 0.584 z-score
33 | CCGATTAACATCAGGGGGGGGCATGATGTTAATCGGGTCTTGATTCGCTTGACGCTGCTG | 3.82 z-score
34 | CCGATTAACATCAGGGGGTAAAATGATGTTAATCGGGTCTTGATTCGCTTGACGCTGCTG | 4.16 z-score
35 | CCGATTAACATCAGCATTCCCCCTGATGTTAATCGGGTCTTGATTCGCTTGACGCTGCTG | 5.57 z-score
36 | CCGATTAACATCAGAGATTTCCCTGATGTTAATCGGGTCTTGATTCGCTTGACGCTGCTG | 5.48 z-score
37 | CCGATTAACATCAAAAATCCCACTGATGTTAATCGGGTCTTGATTCGCTTGACGCTGCTG | 3.87 z-score
